# According to the supplement of paper PMC8728848:
# The list shows a part of the results.
# What was measured:
# Test in all cases: glycan array binding signal (z-score within array); higher = stronger binding
# Conditions in all cases: glycan notation: IUPAC condensed, linker removed
# Fuc(a1-2)Gal = biological target: Fuc(a1-2)Gal
# Summary of the method: (§1)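 The binding signal is a Z-score computed within each array. Data were drawn from 3228 arrays in the Consortium for Functional Glycomics database, restricted to those with a known protein sequence. Scores were averaged over arrays of the same protein sequence at different concentrations or buffers, and over linkers, and negative values can be taken as non-binding.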
# Fuc(a1-2)Gal(b1-3)GalNAc = biological target: Fuc(a1-2)Gal(b1-3)GalNAc
# Summary of the method: as §1
# [1] = biological target: Fuc(a1-2)Gal(b1-3)GalNAc(a1-3)[Fuc(a1-2)]Gal(b1-4)Glc
# Summary of the method: as §1
# [2] = biological target: Fuc(a1-2)Gal(b1-3)GalNAc(a1-3)[Fuc(a1-2)]Gal(b1-4)GlcNAc
# Summary of the method: as §1
# [3] = biological target: Fuc(a1-2)Gal(b1-3)GalNAc(b1-3)Gal
# Summary of the method: as §1
# [4] = biological target: Fuc(a1-2)Gal(b1-3)GalNAc(b1-3)Gal(a1-4)Gal(b1-4)Glc
# Summary of the method: as §1
# [5] = biological target: Fuc(a1-2)Gal(b1-3)GalNAc(b1-4)[Neu5Ac(a2-3)]Gal(b1-4)Glc
# Summary of the method: as §1
# Fuc(a1-2)Gal(b1-3)GlcNAc = biological target: Fuc(a1-2)Gal(b1-3)GlcNAc
# Summary of the method: as §1
# [6] = biological target: Fuc(a1-2)Gal(b1-3)GlcNAc(b1-2)Man(a1-3)[Fuc(a1-2)Gal(b1-3)GlcNAc(b1-2)Man(a1-6)]Man(b1-4)GlcNAc(b1-4)GlcNAc
# Summary of the method: as §1
# [7] = biological target: Fuc(a1-2)Gal(b1-3)GlcNAc(b1-2)Man(a1-3)[Fuc(a1-2)Gal(b1-3)GlcNAc(b1-2)Man(a1-6)]Man(b1-4)GlcNAc(b1-4)[Fuc(a1-6)]GlcNAc
# Summary of the method: as §1
# [8] = biological target: Fuc(a1-2)Gal(b1-3)GlcNAc(b1-3)Gal(b1-4)Glc
# Summary of the method: as §1
# [9] = biological target: Fuc(a1-2)Gal(b1-3)GlcNAc(b1-3)GalNAc
# Summary of the method: as §1
# [10] = biological target: Fuc(a1-2)Gal(b1-3)GlcNAc(b1-3)[Fuc(a1-2)Gal(b1-3)GlcNAc(b1-6)]GalNAc
# Summary of the method: as §1
# [11] = biological target: Fuc(a1-2)Gal(b1-3)GlcNAc(b1-3)[Gal(b1-4)GlcNAc(b1-6)]Gal(b1-4)Glc
# Summary of the method: as §1
# [12] = biological target: Fuc(a1-2)Gal(b1-3)GlcNAc(b1-3)[Neu5Ac(a2-6)Gal(b1-4)GlcNAc(b1-6)]Gal(b1-4)Glc
# Summary of the method: as §1
# [13] = biological target: Fuc(a1-2)Gal(b1-3)GlcNAc6S
# Summary of the method: as §1
# [14] = biological target: Fuc(a1-2)Gal(b1-3)[Fuc(a1-4)]GlcNAc
# Summary of the method: as §1
# [15] = biological target: Fuc(a1-2)Gal(b1-3)[Fuc(a1-4)]GlcNAc(b1-2)Man(a1-3)[Fuc(a1-2)Gal(b1-3)[Fuc(a1-4)]GlcNAc(b1-2)Man(a1-3)]Man(b1-4)GlcNAc(b1-4)GlcNAc
# Summary of the method: as §1
# [16] = biological target: Fuc(a1-2)Gal(b1-3)[Fuc(a1-4)]GlcNAc(b1-2)Man(a1-3)[Fuc(a1-2)Gal(b1-3)[Fuc(a1-4)]GlcNAc(b1-2)Man(a1-6)]Man(b1-4)GlcNAc(b1-4)[Fuc(a1-6)]GlcNAc(b1-4)[Fuc(a1-6)]GlcNAc
# Summary of the method: as §1
# [17] = biological target: Fuc(a1-2)Gal(b1-3)[Fuc(a1-4)]GlcNAc(b1-3)[Fuc(a1-3)[Gal(b1-4)]GlcNAc(b1-6)]Gal(b1-4)Glc
# Summary of the method: as §1
# [18] = biological target: Fuc(a1-2)Gal(b1-3)[Fuc(a1-4)]GlcNAc(b1-3)[Gal(b1-4)GlcNAc(b1-6)]Gal(b1-4)Glc
# Summary of the method: as §1
# [19] = biological target: Fuc(a1-2)Gal(b1-4)Fuc(a1-3)]GlcNAc(b1-2)Man(a1-3)[Fuc(a1-2)Gal(b1-4)[Fuc(a1-3)]GlcNAc(b1-2)Man(a1-6)]Man(b1-4)GlcNAc(b1-4)GlcNAc
# Summary of the method: as §1
# Fuc(a1-2)Gal(b1-4)Glc = biological target: Fuc(a1-2)Gal(b1-4)Glc
# Summary of the method: as §1
# Fuc(a1-2)Gal(b1-4)Glc6S = biological target: Fuc(a1-2)Gal(b1-4)Glc6S
# Summary of the method: as §1
# Fuc(a1-2)Gal(b1-4)GlcNAc = biological target: Fuc(a1-2)Gal(b1-4)GlcNAc
# Summary of the method: as §1
# [20] = biological target: Fuc(a1-2)Gal(b1-4)GlcNAc(b1-2)Man
# Summary of the method: as §1
# [21] = biological target: Fuc(a1-2)Gal(b1-4)GlcNAc(b1-2)Man(a1-3)[Fuc(a1-2)Gal(b1-4)GlcNAc(b1-2)Man(a1-6)]Man(b1-4)GlcNAc(b1-4)GlcNAc
# Summary of the method: as §1
# [22] = biological target: Fuc(a1-2)Gal(b1-4)GlcNAc(b1-2)Man(a1-3)[Fuc(a1-2)Gal(b1-4)GlcNAc(b1-2)Man(a1-6)]Man(b1-4)GlcNAc(b1-4)[Fuc(a1-6)]GlcNAc
# Summary of the method: as §1
# [23] = biological target: Fuc(a1-2)Gal(b1-4)GlcNAc(b1-2)[Fuc(a1-2)Gal(b1-4)GlcNAc(b1-4)]Man(a1-3)[Fuc(a1-2)Gal(b1-4)GlcNAc(b1-2)Man(a1-6)]Man(b1-4)GlcNAc(b1-4)GlcNAc
# Summary of the method: as §1
# [24] = biological target: Fuc(a1-2)Gal(b1-4)GlcNAc(b1-3)Gal(b1-4)GlcNAc
# Summary of the method: as §1
# [25] = biological target: Fuc(a1-2)Gal(b1-4)GlcNAc(b1-3)Gal(b1-4)GlcNAc(b1-2)Man(a1-3)[Fuc(a1-2)Gal(b1-4)GlcNAc(b1-3)Gal(b1-4)GlcNAc(b1-2)Man(a1-6)]Man(b1-4)GlcNAc(b1-4)GlcNAc
# Summary of the method: as §1
# [26] = biological target: Fuc(a1-2)Gal(b1-4)GlcNAc(b1-3)Gal(b1-4)GlcNAc(b1-3)Gal(b1-4)GlcNAc
# Summary of the method: as §1
# [27] = biological target: Fuc(a1-2)Gal(b1-4)GlcNAc(b1-3)GalNAc
# Summary of the method: as §1
# [28] = biological target: Fuc(a1-2)Gal(b1-4)GlcNAc(b1-3)[Fuc(a1-2)Gal(b1-4)GlcNAc(b1-6)]GalNAc
# Summary of the method: as §1
# [29] = biological target: Fuc(a1-2)Gal(b1-4)GlcNAc(b1-3)[Fuc(a1-3)[Gal(b1-4)]GlcNAc(b1-6)]Gal(b1-4)Glc
# Summary of the method: as §1
# [30] = biological target: Fuc(a1-2)Gal(b1-4)GlcNAc(b1-6)GalNAc
# Summary of the method: as §1
# [31] = biological target: Fuc(a1-2)Gal(b1-4)GlcNAc6S
# Summary of the method: as §1
# [32] = biological target: Fuc(a1-2)Gal(b1-4)[Fuc(a1-3)]GlcNAc
# Summary of the method: as §1
# [33] = biological target: Fuc(a1-2)Gal(b1-4)[Fuc(a1-3)]GlcNAc(b1-2)Man(a1-3)[Fuc(a1-2)Gal(b1-4)[Fuc(a1-3)]GlcNAc(b1-2)Man(a1-6)]Man(b1-4)GlcNAc(b1-4)[Fuc(a1-6)]GlcNAc
# Summary of the method: as §1
# [34] = biological target: Fuc(a1-2)Gal(b1-4)[Fuc(a1-3)]GlcNAc(b1-2)[Fuc(a1-2)Gal(b1-4)[Fuc(a1-3)]GlcNAc(b1-4)]Man(a1-3)[Fuc(a1-2)Gal(b1-4)[Fuc(a1-3)]GlcNAc(b1-2)Man(a1-6)]Man(b1-4)GlcNAc(b1-4)GlcNAc
# Summary of the method: as §1
# [35] = biological target: Fuc(a1-2)Gal(b1-4)[Fuc(a1-3)]GlcNAc(b1-3)Gal(b1-4)[Fuc(a1-3)]GlcNAc
# Summary of the method: as §1
# [36] = biological target: Fuc(a1-2)Gal(b1-4)[Fuc(a1-3)]GlcNAc(b1-3)Gal(b1-4)[Fuc(a1-3)]GlcNAc(b1-3)Gal(b1-4)[Fuc(a1-3)]GlcNAc
# Summary of the method: as §1
# [37] = biological target: Fuc(a1-2)Gal(b1-4)[Fuc(a1-3)]GlcNAc(b1-3)GalNAc
# Summary of the method: as §1
# [38] = biological target: Fuc(a1-2)Gal(b1-4)[Fuc(a1-3)]GlcNAc(b1-3)[Neu5Ac(a2-6)Gal(b1-4)GlcNAc(b1-6)]Gal(b1-4)Glc
# Summary of the method: as §1
# [39] = biological target: Fuc(a1-2)Gal3S(b1-4)GlcNAc
# Summary of the method: as §1
binder,measurement,setting,value
DC-ASGPR S+GEE (Homo sapiens) (protein) MTRTYENFQYLENKVKVQGFKNGPLPLQSLLQRLRSGPCHLLLSLGLGLLLLVIICVVGFQNSKFQRDLVTLRTDFSNFTSNTVAEIQALTSQGSSLEETIASLKAEVEGFKQERQAVHSEMLLRVQQLVQDLKKLTCQVATINNNGEEASTEGTCCPVNWVEHQDSCYWFSHSGMSWAEAEKYCQLKNAHLVVINSREEQNFVQKYLGSAYTWMGLSDPEGAWKWVDGTDYATGFQNWKPGQPDDWQGHGLGGGEDCAHFHPDGRWNDDVCQRPYHWVCEAGLGQTSQESH,glycan array binding signal (z-score),Fuc(a1-2)Gal,-0.317
same,glycan array binding signal (z-score),Fuc(a1-2)Gal(b1-3)GalNAc,-0.328
same,glycan array binding signal (z-score),[1],-0.267
same,glycan array binding signal (z-score),[2],-0.364
same,glycan array binding signal (z-score),[3],-0.299
same,glycan array binding signal (z-score),[4],0.011
same,glycan array binding signal (z-score),[5],0.149
same,glycan array binding signal (z-score),Fuc(a1-2)Gal(b1-3)GlcNAc,-0.292
same,glycan array binding signal (z-score),[6],-0.426
same,glycan array binding signal (z-score),[7],-0.267
same,glycan array binding signal (z-score),[8],-0.316
same,glycan array binding signal (z-score),[9],-0.308
same,glycan array binding signal (z-score),[10],-0.316
same,glycan array binding signal (z-score),[11],-0.097
same,glycan array binding signal (z-score),[12],-0.316
same,glycan array binding signal (z-score),[13],0.152
same,glycan array binding signal (z-score),[14],-0.32
same,glycan array binding signal (z-score),[15],-0.328
same,glycan array binding signal (z-score),[16],-0.232
same,glycan array binding signal (z-score),[17],-0.292
same,glycan array binding signal (z-score),[18],-0.313
same,glycan array binding signal (z-score),[19],-0.307
same,glycan array binding signal (z-score),Fuc(a1-2)Gal(b1-4)Glc,0.083
same,glycan array binding signal (z-score),Fuc(a1-2)Gal(b1-4)Glc6S,-0.12
same,glycan array binding signal (z-score),Fuc(a1-2)Gal(b1-4)GlcNAc,-0.064
same,glycan array binding signal (z-score),[20],-0.316
same,glycan array binding signal (z-score),[21],-0.262
same,glycan array binding signal (z-score),[22],-0.237
same,glycan array binding signal (z-score),[23],0.078
same,glycan array binding signal (z-score),[24],0.093
same,glycan array binding signal (z-score),[25],-0.277
same,glycan array binding signal (z-score),[26],-0.337
same,glycan array binding signal (z-score),[27],-0.306
same,glycan array binding signal (z-score),[28],0.072
same,glycan array binding signal (z-score),[29],-0.418
same,glycan array binding signal (z-score),[30],3.59
same,glycan array binding signal (z-score),[31],-0.335
same,glycan array binding signal (z-score),[32],-0.28
same,glycan array binding signal (z-score),[33],-0.252
same,glycan array binding signal (z-score),[34],-0.252
same,glycan array binding signal (z-score),[35],-0.242
same,glycan array binding signal (z-score),[36],-0.276
same,glycan array binding signal (z-score),[37],-0.257
same,glycan array binding signal (z-score),[38],-0.34
same,glycan array binding signal (z-score),[39],0.085
